Data on one molecule can be found in patent publication US20220002408A1 (EXCYTELLC, published 2022).

The target in this test is T1, CD19 on Raji cells (CD19-positive cells) (human, UniProt P15391 20-556).
T1 sequence (looked up): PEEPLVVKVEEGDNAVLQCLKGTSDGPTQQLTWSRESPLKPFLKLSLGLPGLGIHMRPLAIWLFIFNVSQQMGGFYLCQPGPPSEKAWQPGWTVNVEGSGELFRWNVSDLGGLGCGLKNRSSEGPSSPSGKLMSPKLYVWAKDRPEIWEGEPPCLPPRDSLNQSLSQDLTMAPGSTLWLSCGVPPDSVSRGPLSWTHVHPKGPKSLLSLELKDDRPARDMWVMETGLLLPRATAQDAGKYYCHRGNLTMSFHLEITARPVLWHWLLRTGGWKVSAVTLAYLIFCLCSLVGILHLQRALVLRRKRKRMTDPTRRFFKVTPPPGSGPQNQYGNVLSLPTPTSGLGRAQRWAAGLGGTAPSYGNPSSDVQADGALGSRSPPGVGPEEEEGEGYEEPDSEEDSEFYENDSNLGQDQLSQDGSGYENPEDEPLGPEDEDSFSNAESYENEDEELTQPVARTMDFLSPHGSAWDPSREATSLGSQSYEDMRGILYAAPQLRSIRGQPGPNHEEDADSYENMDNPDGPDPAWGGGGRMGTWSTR
Nature of the test: cell-based or functional assay.

B1: bispecific antibody YK002 (bispecific antibody, human IgG4 S228P, kappa)
heavy: QVQLQQSGAELVRPGSSVKISCKASGYAFSSYWMNWVKQRPGQGLEWIGQIWPGDGDTNYNGKFKGKATLTADESSSTAYMQLSSLASEDSAVYFCARRETTTVGRYYYAMDYWGQGTTVTVSSASTKGPSVFPLAPCSRSTSESTAALGCLVKDYFPEPVTVSWNSGALTSGVHTFPAVLQSSGLYSLSSVVTVPSSSLGTKTYTCNVDHKPSNTKVDKRV[human IgG4 Fc with S228P (EU numbers) omitted]GGGGSGGGGSGGGGSDIQMTQSPSSLSASVGDRVTITCRASQDIRNYLNWYQQKPGKAPKLLIYYTSRLESGVPSRFSGSGSGTDYTLTISSLQPEDFATYYCQQGNTLPWTFGCGTKVEIKGGGGSGGGGSGGGGSEVQLVESGGGLVQPGGSLRLSCAASGYSFTGYTMNWVRQAPGKCLEWVALINPYKGVTTYADSVKGRFTISVDKSKNTAYLQMNSLRAEDTAVYYCARSGYYGDSDWYFDVWGQGTLVTVSS
light: DIQLTQSPASLAVSLGQRATISCKASQSVDYDGDSYLNWYQQIPGQPPKLLIYDASNLVSGIPPRFSGSGSGTDFTLNIHPVEKVDAATYHCQQSTEDPWTFGGGTKLEIKRTVAAPSVFIFPPSDEQLKSGTASVVCLLNNFYPREAKVQWKVDNALQSGNSQESVTEQDSKDSTYSLSSTLTLSKADYEKHKVYACEVTHQGLSSPVTKSFNRGEC
For the molecule B1, the “IC50 of target cell killing (PBMC killing of Raji-Luc cells, luciferase read-out, 18 h)” value turned out to be 2.45 pM.
